The record followed here is article PMC7819943, “Rice protein-binding microarrays: a tool to detect cis-acting elements near promoter regions in rice”.

The other results are listed elsewhere or left out.

This assay has as its target T1, OsWOX13 (Oryza sativa, UniProt Q5QMM3 1-267).
T1 sequence: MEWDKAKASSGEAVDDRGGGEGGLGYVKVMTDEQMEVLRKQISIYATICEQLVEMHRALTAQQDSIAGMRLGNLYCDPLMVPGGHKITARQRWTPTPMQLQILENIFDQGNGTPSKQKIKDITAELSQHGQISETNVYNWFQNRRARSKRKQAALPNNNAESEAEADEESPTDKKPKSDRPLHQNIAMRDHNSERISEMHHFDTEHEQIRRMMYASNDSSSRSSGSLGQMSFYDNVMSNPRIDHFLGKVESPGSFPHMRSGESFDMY
Briefly: protein-binding microarray (RPBM); PBS, 2% BSA, 51.3 ng/ul salmon testes DNA, 50 uM zinc acetate, 200 nM TF, 25 C, 1 h; high values mean tight binding. As to conditions: protein: recombinant; tags: N-terminal polyhistidine and DsRed monomer fusion (pET32a); label: CyDye5-dUTP incorporated in the synthesized complementary strand; 3' TTTTT single-stranded linker to array surface; dsDNA, one strand shown. In a few lines: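 Using Ni–NTA, transcription factors fused N-terminally to polyhistidine and DsRed were purified after expression in E. coli BL21-CodonPlus. These were incubated at 200 nM with a blocked, double-stranded custom Agilent array for 1 h at 25 °C in a buffer containing 50 µM zinc acetate, and the array was washed. The binding signal is per-feature fluorescence intensity (arbitrary units) on an Axon 4000B scanner.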
Turning to “AGAAAGGATTGTGCTGATTGCTGTGCCAGGGAGAGAGGTTCGGAGTCACCTAGTGCAG”, the binding signal was 7740 fluorescence intensity (a.u.).
“GGACATGATTTTGTTATAGAATCGAATCCATGTTGCATACCGGAGTCACCTAGTGCAG”: the binding signal is 8220 fluorescence intensity (a.u.).
To “GGTAATTTAACAATATTGCCAAGTTTTAGCATGATTTCTTCGGAGTCACCTAGTGCAG” belongs 11400 fluorescence intensity (a.u.).
Next, “TGGCTAATAGATAGTTACATACTATTCCCTGCATCTCAAACGGAGTCACCTAGTGCAG”: 12100 fluorescence intensity (a.u.); “CACTCCTCATCTCCAATCACACCACACTGGTAAGAATCAACGGAGTCACCTAGTGCAG”: 4820 fluorescence intensity (a.u.); “GCAATCACGTTTGCATAATTTTGGACACATGATTTGAAAACGGAGTCACCTAGTGCAG”: 10400 fluorescence intensity (a.u.).
To “CGAAATTTAATGGCGCCATATATTAAAACACGGAGGGAGTCGGAGTCACCTAGTGCAG” belongs 6740 fluorescence intensity (a.u.).
“ACCCAATTATTAACCTTTTGCCCTTAACTGCATCTCCCGCCGGAGTCACCTAGTGCAG”: the binding signal was 8430 fluorescence intensity (a.u.).
Next, “ATATTATTAATTTCCATTCCTATTTGAGTGCTTCCAAATACGGAGTCACCTAGTGCAG”: 5610 fluorescence intensity (a.u.); “AAGCTAACAAATTTCCATAATTGCTTCCAGTGAAAAGGTTCGGAGTCACCTAGTGCAG”: 12000 fluorescence intensity (a.u.); “ATTATAAATAATCATTAAATGCACGAAACAACCGCGCCAGCGGAGTCACCTAGTGCAG”: 4620 fluorescence intensity (a.u.).
For the sequence “AAAAGAATAATTTATTGTCTTGTTCAGTTAATCCCTCCCTCGGAGTCACCTAGTGCAG”, the binding signal is 3330 fluorescence intensity (a.u.).
Turning to “CCACAATCAATTTGACGTCGCCCCTATTTATGTCCTGCCTCGGAGTCACCTAGTGCAG”, the binding signal was 17600 fluorescence intensity (a.u.).
Next, “TGGCGTGATTGCAATTTGCAGTTTGTCCCTTTTGACATATCGGAGTCACCTAGTGCAG”: 38100 fluorescence intensity (a.u.); “TGGTTATATACAGATGCAAATTGCTAATCAGTAGTACTTACGGAGTCACCTAGTGCAG”: 5290 fluorescence intensity (a.u.); “CTATAATTTGTAGATGATGTAGTATAATTATATTTAATCACGGAGTCACCTAGTGCAG”: 37300 fluorescence intensity (a.u.).
To “GGAGTTGATTGATGGACCTAGAATTGGTTGAGATCCTCAGCGGAGTCACCTAGTGCAG” belongs 63700 fluorescence intensity (a.u.).
Next, “ACTAAATGAAAGTCTAAGATTTGCCATGTTATTATGATAACGGAGTCACCTAGTGCAG”: 4700 fluorescence intensity (a.u.).
On to “ATATGATTCCTACATTAACATAACGAGTTTGTGTTTACAACGGAGTCACCTAGTGCAG”, for which the binding signal is 4200 fluorescence intensity (a.u.).
“TGGCAATTGGCATAACAGAATAGATGCCGCTTGCCGTCATCGGAGTCACCTAGTGCAG”: the binding signal is 4480 fluorescence intensity (a.u.).
Turning to “TCACCTGAAAATTGATTATCTACAAAACCACTTCGACGATCGGAGTCACCTAGTGCAG”, the binding signal was 12800 fluorescence intensity (a.u.).
For the sequence “GAAAATTGACCATAGGCGTGACGAGTCACGTCGGTACAGGCGGAGTCACCTAGTGCAG”, the binding signal was 21100 fluorescence intensity (a.u.).
To “CGTAATTGCATCTCTATTTTCATCTCTACTTCATTTCTCTCGGAGTCACCTAGTGCAG” belongs 37900 fluorescence intensity (a.u.).
Next, “AGATAATTATCATCGTCCACTCTATCCGCCTCCAGCTTGCCGGAGTCACCTAGTGCAG”: 39600 fluorescence intensity (a.u.); “AGTGCTAAATTGGTATTTTATGGGACAGAGGGAGTAACTCCGGAGTCACCTAGTGCAG”: 16100 fluorescence intensity (a.u.); “TGTTGATAGGTATAGGTATGAATCGAATTCTTATAACTAGCGGAGTCACCTAGTGCAG”: 15700 fluorescence intensity (a.u.).
For “TAATATAATAATAGATAGATAGATTCATCAACTACTGCTTCGGAGTCACCTAGTGCAG”, the binding signal is 7100 fluorescence intensity (a.u.).
To “AAATCAATCTCAACATTATCCCTTTCTTGAGGCTGAGGTTCGGAGTCACCTAGTGCAG” belongs 4060 fluorescence intensity (a.u.); to “GTACATAATGCCTAATCGATTGATTTAATATATGCTGGACCGGAGTCACCTAGTGCAG”, 9230 fluorescence intensity (a.u.); to “CTTAATTAGATGAAATTTAGTACTATTAATTATACTCCATCGGAGTCACCTAGTGCAG”, 50100 fluorescence intensity (a.u.).
Turning to “TACTATGCATAATTTAATAATAAATCGACGATGAGGTCGACGGAGTCACCTAGTGCAG”, the binding signal is 3870 fluorescence intensity (a.u.).
To “CATGTATCTAATTAACCCAATTTCCAACGGCACCCAGCTGCGGAGTCACCTAGTGCAG” belongs 6770 fluorescence intensity (a.u.); to “ATTCTACCTATCATCCATTTAAACATGCTACTAGCCATTCCGGAGTCACCTAGTGCAG”, 4940 fluorescence intensity (a.u.).
As to “GTTGTCTAATTTGTGCATTAACCATGTTGTAATGGCATGACGGAGTCACCTAGTGCAG”, the binding signal was 24700 fluorescence intensity (a.u.).
To “GCATAGCTTGATTAACATAATTAGATGCAATGCATATAGGCGGAGTCACCTAGTGCAG” belongs 25000 fluorescence intensity (a.u.); to “GTTGAGTAATAAAATGCAATTATTGGTTATTTTGCAAAGTCGGAGTCACCTAGTGCAG”, 4310 fluorescence intensity (a.u.); to “TTAGATTGGCTATAAATGAATTGTAGCAAGGCTATACCGTCGGAGTCACCTAGTGCAG”, 49800 fluorescence intensity (a.u.).
Next, “CGGATATATAATAAGGAGCTAATTAGCGCACTAATTTCTCCGGAGTCACCTAGTGCAG”: 10700 fluorescence intensity (a.u.); “CCCTAATTTATACTCTAAGATACCGATGATGAAAGATGAGCGGAGTCACCTAGTGCAG”: 21100 fluorescence intensity (a.u.).
To “ATTCAGTGTAATGAAGATCAATAAAACAAATAATTTTATGCGGAGTCACCTAGTGCAG” belongs 15100 fluorescence intensity (a.u.); to “ACTCAATTATCACCTCATTTTACATATCTTATTAATTTTACGGAGTCACCTAGTGCAG”, 5700 fluorescence intensity (a.u.).
Consider “GCACCCTACTAAACAAGTGATTAGCCCAGCTAATTGCTGGCGGAGTCACCTAGTGCAG”, for which the binding signal was 7800 fluorescence intensity (a.u.).
As for “ATGAAATATGTAACAGATTATGACTTGGGTATTACGTTTCCGGAGTCACCTAGTGCAG”, the binding signal was 5920 fluorescence intensity (a.u.).
Next, “CAAAATTGGAGGCGCGATTCTGTATCACTAATAATTCAGCCGGAGTCACCTAGTGCAG”: 5950 fluorescence intensity (a.u.).
Turning to “AATGATTGTCGAATAAGATGGGACTAATATTAATGTTAGTCGGAGTCACCTAGTGCAG”, the binding signal was 31800 fluorescence intensity (a.u.).
Next, “ACTGCCAATCATATATATAGTTTATACTTATTCAAAACAACGGAGTCACCTAGTGCAG”: 12900 fluorescence intensity (a.u.); “CACACGATTAATTTAAGTATTAATTACTTAAAACTTAAAACGGAGTCACCTAGTGCAG”: 17700 fluorescence intensity (a.u.).
To “GAGCAGTTAATCTTTAATTAATCATGTGCTAATAAGCTTTCGGAGTCACCTAGTGCAG” belongs 8720 fluorescence intensity (a.u.); to “TAGGCCCACTAATTAGGCCCATCCAACACGCCGTCCGACGCGGAGTCACCTAGTGCAG”, 4020 fluorescence intensity (a.u.); to “ATTCAAATTTGTTATTACTAAAGCTTCCTGGTTTCATGCCCGGAGTCACCTAGTGCAG”, 11700 fluorescence intensity (a.u.).
To “GGAGGTAATTTTCAAATTTGCCGGTTTAGTTCTCGAAGATCGGAGTCACCTAGTGCAG” belongs 7790 fluorescence intensity (a.u.); to “CCAATATGTCTTGAGATTGATGAAGTTATTACAGGTGCTTCGGAGTCACCTAGTGCAG”, 6720 fluorescence intensity (a.u.).
“TAACAAATTAATTTTGTCCATGCATGAACAAACCAGAATGCGGAGTCACCTAGTGCAG”: the binding signal is 23700 fluorescence intensity (a.u.).
With “TTAGATTGAGAAGACTATGGCTCCTCAGTTCTCAACATGTCGGAGTCACCTAGTGCAG”, the binding signal was 40800 fluorescence intensity (a.u.).
